Results: ChEMBL document CHEMBL4888484, “Replenishing the malaria drug discovery pipeline: Screening and hit evaluation of the MMV Hit Generation Library 1 (HGL1) against asexual blood stage Plasmodium falciparum ,using a nano luciferase reporter read-out” (2022)
The campaign covered roughly 150,000 compounds. About 540 (0.36%) showed an effect of 50% or more. Some of the results follow.

test system: Plasmodium falciparum; assay: Primary screen in NF54 nanoGlo assay, in single point, at 2uM, 72h; a lower Z score goes with more inhibition; assay type: functional, Erythrocyte; conditions: timepoint 72 hour

Row | SMILES | % Inhibition [%] | Z score
1 | Cc1ccccc1C(C)NC(C)C(=O)O (stereo unspecified) | 5 | -0.78
2 | Cc1cc(COCC(=O)N2CCOC3(CCC3)C2)on1 | -15 | 1.56
3 | Cn1c(=O)c(Nc2ccc(Cl)cc2)c2c3c(cccc31)C(=O)c1ccccc1-2 | 2 | -0.33
4 | COCCN1CC(=O)N[C@H]2CN(c3ccc(C#N)cn3)C[C@@H]2OCc2cccc(c2)Oc2cc(ccc2OC)CCC1=O | 3 | -0.39
5 | CC1Oc2ccc(NC(=O)Nc3cccc(Cl)c3)cc2CN(C2CCCc3ccccc32)C1=O (stereo unspecified) | -7 | 0.79
6 | CC(N=C(N)NCc1ccc(Cl)cc1)C1CCCO1 (stereo unspecified) | -16 | 1.4
7 | CC(C)(C)[C@H](CO)NC(=O)c1cncnc1 | -15 | 2.29
8 | CC(C)(C)c1cc(CN2C[C@@H](CN3CCCCCC3)[C@@H](CO)C2)n[nH]1 | -5 | 0.72
9 | O=C(CN(Cc1cccc2nccn12)C[C@H]1CCCO1)N1CCCC1 | 5 | -0.44
10 | O=C(NC[C@H](O)c1ccccc1F)Nc1ccc2c(c1)OCCO2 | -15 | 1.4
11 | Cc1nonc1CN(C)C(=O)c1cc(Cn2cnc3ccccc32)on1 | 2 | -0.43
12 | Cc1ncc2c(n1)CCN(Cc1cn3ccccc3c1C#N)C2 | -4 | 0.58
13 | C#CCN1CCC(C(=O)N(c2ccccc2)[C@@H](CC)C(=O)OC)CC1 | -2 | 0.21
14 | C[C@@H](C(=O)N(C)C1CCCCC1)S(=O)(=O)C1CCCC1 | -9 | 1.18
15 | CCn1c(-c2cccnc2)nc2cc(NC(=O)COC)cc(C(=O)NCCCN3CCOCC3)c21 | -14 | 1.95
16 | CCN(CC(=O)Nc1ccc(OC)cc1)C(=O)c1cccc(S(=O)(=O)N2CCN(c3ccccc3)CC2)c1 | -16 | 3
17 | CCC(C)[C@@H](NC(=O)Nc1ccccc1F)C(=O)OC (stereo partly specified) | 8 | -1.04
18 | Cn1cccc1C(=O)NCCNC(=O)[C@@H]1CCO1 | 34 | -0.78
19 | Fc1ccc(CN2CC(N3CCOCC3)C2)c(F)c1 | 7 | -1.46
20 | COCCN(CC(F)F)C(=O)N[C@@H](C)c1cn(C)nc1C | -8 | 1.03
21 | Cc1ccccc1[C@@H](NS(=O)(=O)C1CCS(=O)(=O)CC1)C1CC1 | 1 | -0.19
22 | CCOc1nnc(CN2CCN(C(=O)c3ccco3)CC2)s1 | -7 | 0.94
23 | Cc1nc2c(c(N3CCCC3)n1)CCN(C(=O)c1ccc(C)[nH]c1=O)C2 | -10 | 1.45
24 | COCc1ncc(C)n1CC1CCN(C(=O)c2cc(C)n(C)n2)CC1 | -11 | 1.41
25 | CCc1c(C)sc(NC(=O)c2cccnc2)c1C(=O)NC1CCCCC1 | -6 | 0.73
26 | Cc1ccc(F)c(CN2CC[C@H]3NCCC[C@]3(C(=O)O)C2)c1Cl | -11 | 2.05
27 | O=C(NCc1cncc(N2CCCC2=O)c1)c1cccc(Cl)c1 | -9 | 1.6

Row | SMILES | % Inhibition [%] | Z score
28 | NC(=O)c1csc(C(=O)N2CC[C@@]3(CCCN(Cc4ccccc4)C3)C2)c1 | 3 | -0.43
29 | CCc1nc(CC)n(Cc2nc(N(C)C)no2)n1 | 8 | -0.96
30 | Cc1ccccc1[C@H]1C[C@H](NC(=O)NC[C@H]2CCCCN(C)C2)C1 | -5 | 0.82
31 | O=C(Cn1cnc(C2CC2)cc1=O)NCc1nc(-c2cc(C3CC3)on2)no1 | 15 | -1.84
32 | Cn1cccc1-c1noc([C@H]2CCN(Cc3nc(-c4ccc(F)cc4)no3)C2)n1 | -6 | 0.8
33 | C[C@H]1CN(CCNC(=O)Nc2cc(C(=O)N(C)C)ccn2)CCO1 | -7 | 1.24
34 | CCc1ccc(C(=O)N(CC(=O)N(Cc2ccc(F)cc2)Cc2sccc2C)CC(C)C)cc1 | -5 | 0.77
35 | CC(C)N(C)Cc1nnnn1CC(=O)NCc1c[nH]nc1-c1ccc(F)cc1 | 17 | -2.2
36 | Cc1nccn1CC(C)CNC(=O)N[C@@H]1C[C@H]1c1cccc(F)c1 (stereo partly specified) | 11 | -1.38
37 | Cc1cc(=O)c(C(=O)NCCC2=CC[C@H]3C[C@@H]2C3(C)C)cn1C | -9 | 1.46
38 | CC(C)(CC(N)=O)NC(=O)CN1CCN(C(=O)OC(C)(C)C)CC1 | -11 | 1.25
39 | O=C(Cn1cnc2nc(N3CCOCC3)sc2c1=O)NCc1ccc2c(c1)OCO2 | -7 | 1.21
40 | CN(Cc1cscn1)C(=O)c1cnn(-c2ncc3c(n2)-c2ccccc2CCC3)c1C1CC1 | -12 | 1.3
41 | Cc1csc(Oc2ccc(NC(=O)C3CC(=O)C3)cc2F)n1 | 11 | -1.3
42 | CC(C)(C)OC(=O)NCc1nnc(N)o1 | -8 | 0.96
43 | Fc1cc(-c2cncc(-c3nnn[nH]3)c2)ccc1Cl | -11 | 2.1
44 | Cc1nc(C(=O)N2CCCCC2C2CCCCC2O)c(C)o1 (stereo unspecified) | -4 | 0.85
45 | COC(=O)C1(NCc2nnc(C(C)C)n2C)CCC1 | 4 | -0.45
46 | O=C(NCCCOc1cccnc1)c1cn(C[C@H]2COc3ccccc3O2)nn1 | -9 | 1.17
47 | CCc1nc(CC)n(CC(=O)Nc2cc(C)nn2C)n1 | 29 | -3.33
48 | Cn1c(NC(=O)C2CCCCC2)c(-c2ccc(Cl)c(Cl)c2)c(=O)c2ccccc21 | 2 | -0.38
49 | CNC(=NCc1ccc(C)cc1OCC1CC1)NC1CC1 | -4 | 0.7
50 | CC(C)n1c(C2CCCC2)nn(C)c1=O | -9 | 1.34
51 | COc1ccc(-c2noc([C@H](C)O)c2C(=O)N2CCN(c3ccccc3OC)CC2)cc1OC | -11 | 1.76
52 | CCOC(=O)[C@H]1CNC(=O)CC12CCN(C(=O)OC(C)(C)C)CC2 | -6 | 0.98
53 | Cc1nccn1CC(=O)NCC1CCN(C(=O)c2ncoc2C(C)C)CC1 | -6 | 0.75
